Numbering of substitutions follows the chain as printed; changes in the protein carry UniProt numbers. This is one part of the list.
T1: RBFOX1 RRM (Homo sapiens, UniProt Q9NWB1 109-208)
T1 sequence: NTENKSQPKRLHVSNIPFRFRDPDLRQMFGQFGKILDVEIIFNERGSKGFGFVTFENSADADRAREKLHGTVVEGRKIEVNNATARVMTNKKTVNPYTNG

B1: UAAUCAA (DNA:RNA)
RNA: GGGAGACCGGAAUUCAGAUUGUCCUAAUCAAUUAAAUCCCGUCGUAGCCACCA
DNA 1: CAATCTGAATTCCGGTCTCCC
DNA 2: TGGTGGCTACGACGGGATT
B2: GUCAUCA (DNA:RNA)
RNA: B1 RNA with U25G, A26U, A27C, U28A, C29U, A30C
DNA 1: CAATCTGAATTCCGGTCTCCC
DNA 2: TGGTGGCTACGACGGGATT
B3: ACGCAGU (DNA:RNA)
RNA: GGGAGACCGGAAUUCAGAUUGUCCACGCAGUUUAAAUCCCGUCGUAGCCACCA
DNA 1: CAATCTGAATTCCGGTCTCCC
DNA 2: TGGTGGCTACGACGGGATT
B4: GAGUGUC (DNA:RNA)
RNA: B1 RNA with U25G, A27G, C29G, A30U, A31C
DNA 1: CAATCTGAATTCCGGTCTCCC
DNA 2: TGGTGGCTACGACGGGATT
B5: CGUCUGA (DNA:RNA)
RNA: B3 RNA with A25C, C26G, G27U, A29U, U31A
DNA 1: CAATCTGAATTCCGGTCTCCC
DNA 2: TGGTGGCTACGACGGGATT
B6: UCUCGGU (DNA:RNA)
RNA: B3 RNA with A25U, G27U, A29G
DNA 1: CAATCTGAATTCCGGTCTCCC
DNA 2: TGGTGGCTACGACGGGATT
B7: GGCCGAC (DNA:RNA)
RNA: B3 RNA with A25G, C26G, G27C, A29G, G30A, U31C
DNA 1: CAATCTGAATTCCGGTCTCCC
DNA 2: TGGTGGCTACGACGGGATT
B8: UGAUCGC (DNA:RNA)
RNA: B1 RNA with A26G, A30G, A31C
DNA 1: CAATCTGAATTCCGGTCTCCC
DNA 2: TGGTGGCTACGACGGGATT
B9: GGUUGGG (DNA:RNA)
RNA: B3 RNA with A25G, C26G, G27U, C28U, A29G, U31G
DNA 1: CAATCTGAATTCCGGTCTCCC
DNA 2: TGGTGGCTACGACGGGATT

The binders below were run against T1, RBFOX1 RRM (assay: EMSA; HiTS-Eq, 1 nM pool, 10 min; buffer printed only for the single-RNA assays: 10 mM Tris pH 7.5, 150 mM NaCl, 3.4 mM EDTA, 0.001% NP-40, 30 C). Conditions: tags: His6 N-terminal (pET28a); label: 5' 32P.
Procedure, shortened: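 Purified wild-type or mutant RbFox RRM at increasing concentrations was equilibrated with 1 nM of 5′-radiolabelled RNA carrying 7 randomized nucleotides for 10 min in 50 µL. Unbound RNA was separated by 8% native PAGE and sequenced. Relative association constants came from read-count changes of each RNA species compared with the control reaction, normalised to the cognate motif.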
For B1, the binding signal was 0.00134 KA relative to UGCAUGU. In the case of B2, the binding signal is reported as 0.0041 KA relative to UGCAUGU. B3 was tested, and the binding signal was 0.00515 KA relative to UGCAUGU. With B4 the binding signal was 0.0195 KA relative to UGCAUGU. With B5 the binding signal was 0.0169 KA relative to UGCAUGU. B6 was tested, and the binding signal was 0.013 KA relative to UGCAUGU. B7 was tested, and the binding signal was 0.0189 KA relative to UGCAUGU. For B8, the binding signal was 0.025 KA relative to UGCAUGU. In the case of B9, the binding signal is reported as 0.0108 KA relative to UGCAUGU.

Source: publication PMC9911399, “Two distinct binding modes provide the RNA-binding protein RbFox with extraordinary sequence specificity”
